Results on 172 sequences are retold here after PMC4242493.

Some of the results follow. The list includes weakly bound sequences.

The target of the test is MaxL homodimer (UniProt P61244). As to the kind of experiment: universal protein-binding microarray (PBM). As to conditions: PBS-based mixture, 10 nM His-tagged protein dimer, 2% milk, 200 ng/uL BSA, 50 ng/uL salmon testes DNA, 0.02% TX-100; detection with Alexa 488 anti-His …; high values mean tight binding; most listed sequences are background and not binding sites; double strand, one strand shown.
Sequence of UniProt P61244 (P61244 whole entry): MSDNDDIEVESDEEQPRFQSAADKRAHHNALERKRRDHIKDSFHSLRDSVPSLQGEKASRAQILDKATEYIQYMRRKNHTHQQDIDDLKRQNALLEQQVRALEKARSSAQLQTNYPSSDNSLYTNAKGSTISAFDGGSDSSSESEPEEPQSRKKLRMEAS
ATGTATCG: the binding signal (normalized occupancy) is 0.085.

Consider ACGGATCG, for which the binding signal (normalized occupancy) was found to be 0.0738.

As for AGGCGGCA, the binding signal (normalized occupancy) is 0.0675.

GTGAGGAA: the binding signal (normalized occupancy) was 0.0743.

In the case of TCCCTCAA, the binding signal (normalized occupancy) turned out to be 0.0715.

With ATCCTTCC, the binding signal (normalized occupancy) came to 0.0759.

On to GCAGTCTA, for which the binding signal (normalized occupancy) came to 0.071.

Consider GTATAGAC, for which the binding signal (normalized occupancy) came to 0.077.

For AGAAATAT, the binding signal (normalized occupancy) amounted to 0.0848.

In the case of ATGCACTA, the binding signal (normalized occupancy) came to 0.0886.

As for GAAAACGC, the binding signal (normalized occupancy) was 0.0738.

As to ACCCACCA, the binding signal (normalized occupancy) worked out at 0.088.

Turning to ACACCCTA, the binding signal (normalized occupancy) was 0.0857.

With AACGTTGA, the binding signal (normalized occupancy) turned out to be 0.0764.

On to GTAATGTA, for which the binding signal (normalized occupancy) amounted to 0.0822.

With CCGATAAA, the binding signal (normalized occupancy) came out at 0.0723.

Consider CAGAAGTA, for which the binding signal (normalized occupancy) turned out to be 0.0747.

With ACGCGTCA, the binding signal (normalized occupancy) was 0.0796.

Turning to GAAGAGAC, the binding signal (normalized occupancy) was determined as 0.0685.

On to CCGTGAAG, for which the binding signal (normalized occupancy) came out at 0.0739.

On to ATAGTATG, for which the binding signal (normalized occupancy) was 0.0808.

Turning to GGGACGGA, the binding signal (normalized occupancy) came to 0.0735.

For CACTATTA, the binding signal (normalized occupancy) was 0.0809.

As for GCCTTACC, the binding signal (normalized occupancy) is 0.0773.

On to GTCTTGGA, for which the binding signal (normalized occupancy) is 0.0715.

Turning to ATTGCCGC, the binding signal (normalized occupancy) worked out at 0.0717.

As to AATTATAT, the binding signal (normalized occupancy) came to 0.0809.

For AGCGATGC, the binding signal (normalized occupancy) amounted to 0.0746.

Take AAATGACC: the binding signal (normalized occupancy) amounted to 0.0764.

Consider ATACTGAT, for which the binding signal (normalized occupancy) came to 0.0847.

Consider CTTAGTCA, for which the binding signal (normalized occupancy) came out at 0.075.

For GAAGGCTA, the binding signal (normalized occupancy) was 0.0751.

In the case of AACAGTAA, the binding signal (normalized occupancy) stood at 0.0738.

In the case of CCACCTTC, the binding signal (normalized occupancy) was 0.0757.

On to CGCATACA, for which the binding signal (normalized occupancy) worked out at 0.0849.

Consider TGTGAAAA, for which the binding signal (normalized occupancy) was found to be 0.0766.

Regarding GTTAAGTA, the binding signal (normalized occupancy) is 0.0779.

With AAACCGAT, the binding signal (normalized occupancy) turned out to be 0.0702.

For the sequence CTGCCACA, the binding signal (normalized occupancy) was 0.0754.

As for AGCTTCGC, the binding signal (normalized occupancy) worked out at 0.0661.

Turning to AAGGAACC, the binding signal (normalized occupancy) turned out to be 0.0702.

Consider AAGACGAA, for which the binding signal (normalized occupancy) came to 0.0705.

As to AACTACCT, the binding signal (normalized occupancy) is 0.0747.

As for ACCTACAC, the binding signal (normalized occupancy) was 0.0794.

Consider AGACCCGC, for which the binding signal (normalized occupancy) came out at 0.0755.

With ATATTTGC, the binding signal (normalized occupancy) was determined as 0.079.

For ACCAATCA, the binding signal (normalized occupancy) was found to be 0.0744.

With CAGCTGGG, the binding signal (normalized occupancy) was found to be 0.0695.

Take CTCTAAAC: the binding signal (normalized occupancy) is 0.0761.

In the case of GCGTCAAA, the binding signal (normalized occupancy) was found to be 0.0731.

Consider CTCCATGC, for which the binding signal (normalized occupancy) came out at 0.0969.

As to AGGCCTTC, the binding signal (normalized occupancy) worked out at 0.067.

CCGGTCCA: the binding signal (normalized occupancy) was 0.0731.

Take ACGTAGTC: the binding signal (normalized occupancy) worked out at 0.0749.

ATTATTGC: the binding signal (normalized occupancy) is 0.0804.

For TCAACTAA, the binding signal (normalized occupancy) came out at 0.0725.

For GCGGCTAC, the binding signal (normalized occupancy) came out at 0.0666.

In the case of AGACAAGG, the binding signal (normalized occupancy) was found to be 0.0731.

As to ACGACGAC, the binding signal (normalized occupancy) came to 0.0761.

As for CCCGAAGG, the binding signal (normalized occupancy) turned out to be 0.0689.

For GCATCCGC, the binding signal (normalized occupancy) came out at 0.0757.

Regarding CGTGAACA, the binding signal (normalized occupancy) was 0.0832.

Regarding ATGATCTA, the binding signal (normalized occupancy) stood at 0.0825.

In the case of ATCCATTC, the binding signal (normalized occupancy) came out at 0.079.

GATTCGAA: the binding signal (normalized occupancy) was found to be 0.0723.

In the case of AATGTCAT, the binding signal (normalized occupancy) came out at 0.0821.

Take CCCCCGAA: the binding signal (normalized occupancy) was found to be 0.0819.

With CCTACCGA, the binding signal (normalized occupancy) came out at 0.0788.

Take AAATGCCA: the binding signal (normalized occupancy) is 0.0768.

Take AGCCGCAG: the binding signal (normalized occupancy) is 0.0658.

Turning to GAGGCAAA, the binding signal (normalized occupancy) came to 0.0738.

For GACTGTTA, the binding signal (normalized occupancy) is 0.0767.

In the case of AGTGTACA, the binding signal (normalized occupancy) came to 0.0789.

For AACCGCGG, the binding signal (normalized occupancy) turned out to be 0.0664.

Turning to CAGGTCTC, the binding signal (normalized occupancy) was determined as 0.0718.

Consider GCACTTAC, for which the binding signal (normalized occupancy) was determined as 0.0761.

With AACGGGCA, the binding signal (normalized occupancy) is 0.0704.

With ACCGACCG, the binding signal (normalized occupancy) was found to be 0.0698.

In the case of TATAAACA, the binding signal (normalized occupancy) stood at 0.0776.

With AGTTTAGC, the binding signal (normalized occupancy) worked out at 0.0735.

With AGATGGCC, the binding signal (normalized occupancy) was found to be 0.0781.

Turning to ATTTTTCC, the binding signal (normalized occupancy) was 0.0726.

Consider GAGCTTGA, for which the binding signal (normalized occupancy) turned out to be 0.0669.

In the case of CACTTTGA, the binding signal (normalized occupancy) amounted to 0.0776.

Turning to CCCGCCGG, the binding signal (normalized occupancy) was found to be 0.0718.

For ATAACTAT, the binding signal (normalized occupancy) amounted to 0.0809.

For the sequence TAAACTCA, the binding signal (normalized occupancy) amounted to 0.0755.

CCCTCCAA: the binding signal (normalized occupancy) turned out to be 0.075.

On to AAGCTCCC, for which the binding signal (normalized occupancy) turned out to be 0.0683.

Turning to CAACGCCA, the binding signal (normalized occupancy) came to 0.078.

Take ACACTCAA: the binding signal (normalized occupancy) was 0.0744.

Consider AGCGCTCA, for which the binding signal (normalized occupancy) was found to be 0.0668.

As for AAAGTACA, the binding signal (normalized occupancy) came to 0.0761.

Turning to CTCGAGTC, the binding signal (normalized occupancy) worked out at 0.0755.

On to ATGCAACA, for which the binding signal (normalized occupancy) is 0.0793.

In the case of CCAATACC, the binding signal (normalized occupancy) is 0.078.

For ATGAATAA, the binding signal (normalized occupancy) was determined as 0.0849.

Consider CTGATAGA, for which the binding signal (normalized occupancy) stood at 0.0736.

Turning to ATTTGGAC, the binding signal (normalized occupancy) worked out at 0.0778.

Turning to AATGGGTC, the binding signal (normalized occupancy) worked out at 0.077.

Turning to GCACTGCA, the binding signal (normalized occupancy) is 0.0725.

Regarding AAACACTA, the binding signal (normalized occupancy) amounted to 0.0792.

Turning to ATGCTTTC, the binding signal (normalized occupancy) was 0.0842.

On to ACCTATAG, for which the binding signal (normalized occupancy) came out at 0.0762.

Turning to CCTCCCCA, the binding signal (normalized occupancy) was 0.0793.

Consider GTTCGGCA, for which the binding signal (normalized occupancy) came to 0.0797.

Take AAGCTCTA: the binding signal (normalized occupancy) is 0.0723.

As for GCAAGTCA, the binding signal (normalized occupancy) was 0.0775.

In the case of ACAGCTGA, the binding signal (normalized occupancy) was determined as 0.0688.

GAAAAGCA: the binding signal (normalized occupancy) is 0.0706.

As for GAAGAGCC, the binding signal (normalized occupancy) was 0.0677.

CGGTCCCC: the binding signal (normalized occupancy) turned out to be 0.0709.

Turning to ACGTCAAG, the binding signal (normalized occupancy) is 0.0766.

ATTAGGTA: the binding signal (normalized occupancy) was 0.0783.

Consider GCTTGTCA, for which the binding signal (normalized occupancy) was 0.0744.

As to AGCTTTAC, the binding signal (normalized occupancy) turned out to be 0.0721.

On to GCCACTAC, for which the binding signal (normalized occupancy) came to 0.0738.

In the case of TCAGCGAA, the binding signal (normalized occupancy) came to 0.0689.

In the case of ACATTCAC, the binding signal (normalized occupancy) came to 0.0829.

Consider CAAATTCC, for which the binding signal (normalized occupancy) was found to be 0.077.

Turning to ACTCTAAG, the binding signal (normalized occupancy) was 0.0774.

On to AACGGAAA, for which the binding signal (normalized occupancy) stood at 0.0704.

Turning to CCGCAATA, the binding signal (normalized occupancy) came to 0.0693.

In the case of GTAGTTGA, the binding signal (normalized occupancy) worked out at 0.0738.

For the sequence CAGCGGCC, the binding signal (normalized occupancy) is 0.0652.

Consider AGAGCGTG, for which the binding signal (normalized occupancy) stood at 0.0963.

As to GCAGTAAC, the binding signal (normalized occupancy) worked out at 0.0744.

Regarding AGAGACAC, the binding signal (normalized occupancy) amounted to 0.0742.

As to ACTTCCGA, the binding signal (normalized occupancy) is 0.0725.

With AATCACAA, the binding signal (normalized occupancy) stood at 0.0813.

Take AAACATTG: the binding signal (normalized occupancy) turned out to be 0.0754.

In the case of CCATTTCA, the binding signal (normalized occupancy) turned out to be 0.0736.

With CAAGGACC, the binding signal (normalized occupancy) was 0.0719.

In the case of GTATGACA, the binding signal (normalized occupancy) was determined as 0.0848.

Turning to AATCTGAT, the binding signal (normalized occupancy) was 0.077.

On to CGTTAGGA, for which the binding signal (normalized occupancy) is 0.076.

Consider ACTTTTCA, for which the binding signal (normalized occupancy) is 0.0767.

In the case of ACGCACAT, the binding signal (normalized occupancy) is 0.0968.

Regarding ATTAGGGG, the binding signal (normalized occupancy) was 0.0814.

With ATCAACGA, the binding signal (normalized occupancy) stood at 0.0713.

In the case of ATTGAAAC, the binding signal (normalized occupancy) turned out to be 0.0762.

Regarding AGATACCT, the binding signal (normalized occupancy) worked out at 0.0734.

For the sequence ATGGGGTC, the binding signal (normalized occupancy) was determined as 0.0935.

With CTTTACAA, the binding signal (normalized occupancy) worked out at 0.0732.

Take ACGCCCAA: the binding signal (normalized occupancy) came to 0.073.

As for CCGAGGGA, the binding signal (normalized occupancy) was determined as 0.0724.

As to GCCGGCTA, the binding signal (normalized occupancy) is 0.0655.

With CGCGAGAC, the binding signal (normalized occupancy) came out at 0.0744.

On to GGGACTCA, for which the binding signal (normalized occupancy) was found to be 0.0716.

Consider ATGGAGAA, for which the binding signal (normalized occupancy) worked out at 0.0775.

AGAAGTCG: the binding signal (normalized occupancy) is 0.0714.

Regarding TCAGCTAA, the binding signal (normalized occupancy) was 0.0702.

In the case of AAACTCTA, the binding signal (normalized occupancy) is 0.0728.

As to GACCTTTA, the binding signal (normalized occupancy) is 0.075.

With AAGAAACC, the binding signal (normalized occupancy) came to 0.0743.

Turning to ACACGGTC, the binding signal (normalized occupancy) amounted to 0.0754.

Take AGTATGTG: the binding signal (normalized occupancy) was determined as 0.081.

In the case of GCTGAGCC, the binding signal (normalized occupancy) was 0.0713.

As for AGGCTCGG, the binding signal (normalized occupancy) turned out to be 0.0668.

Regarding ATGCCTAC, the binding signal (normalized occupancy) was 0.0877.

As for AAAGGCTT, the binding signal (normalized occupancy) came out at 0.0694.

Turning to ATGAGTGC, the binding signal (normalized occupancy) was found to be 0.0831.

Regarding AATGTGCT, the binding signal (normalized occupancy) is 0.0916.

Consider ACTTGGGC, for which the binding signal (normalized occupancy) was 0.0727.

Turning to AGTTCCAA, the binding signal (normalized occupancy) turned out to be 0.0691.

Turning to AAGGCTTG, the binding signal (normalized occupancy) worked out at 0.0703.

As to CCGCCCAG, the binding signal (normalized occupancy) was 0.0767.

In the case of CTACCGAA, the binding signal (normalized occupancy) was determined as 0.0705.

Regarding ATCCAAAC, the binding signal (normalized occupancy) was 0.0779.

With ATTTATCC, the binding signal (normalized occupancy) stood at 0.0788.

For CTCAGGAA, the binding signal (normalized occupancy) came to 0.0716.

Regarding CACAGTTC, the binding signal (normalized occupancy) came to 0.0766.
